Measured values reported in the supplement of paper PMC6531468.
The other results are listed elsewhere or left out. Read counts after selection give these values, which scatter widely. Each score is taken over the longer molecules that contain the sequence shown.

Tests used:
Test in all cases: 6-mer SELEX enrichment z-score vs GST control; IMP3 is the RNA-binding protein IGF2BP3; higher = more enriched by binding
[1] = tested on: IMP3 KH1-4; details: construct: KH1-4 (164-579); SELEX round: R4
Protocol: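 SELEX-seq with GST-tagged IMP3 KH1-4 (Pro164-Lys579) and an N40 RNA pool, round 4. 6-mer z-score of sequence-tag enrichment normalised to the corresponding GST SELEX round; RNA k-mers written as DNA (T for U).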

[2] = tested on: IMP3 RRM1-2; details: construct: RRM1-2 (1-163); SELEX round: R2
Sequence of IMP3 RRM1-2 (chain, as listed by the source): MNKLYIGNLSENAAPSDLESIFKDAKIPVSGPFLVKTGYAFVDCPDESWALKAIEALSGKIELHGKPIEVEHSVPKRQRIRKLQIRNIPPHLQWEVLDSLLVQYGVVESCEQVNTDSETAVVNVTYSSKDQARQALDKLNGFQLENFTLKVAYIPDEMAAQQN
Protocol: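 SELEX-seq with GST-tagged IMP3 RRM1-2 (Met1-Asn163) and an N40 RNA pool, round 2. 6-mer enrichment z-score normalised to GST SELEX. RNA written as DNA (T = U).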

[3] = biological target: IMP3 full-length (UniProt O00425); details: construct: FL IMP3 (1-579); SELEX round: R4
Sequence of UniProt O00425 (O00425 whole entry): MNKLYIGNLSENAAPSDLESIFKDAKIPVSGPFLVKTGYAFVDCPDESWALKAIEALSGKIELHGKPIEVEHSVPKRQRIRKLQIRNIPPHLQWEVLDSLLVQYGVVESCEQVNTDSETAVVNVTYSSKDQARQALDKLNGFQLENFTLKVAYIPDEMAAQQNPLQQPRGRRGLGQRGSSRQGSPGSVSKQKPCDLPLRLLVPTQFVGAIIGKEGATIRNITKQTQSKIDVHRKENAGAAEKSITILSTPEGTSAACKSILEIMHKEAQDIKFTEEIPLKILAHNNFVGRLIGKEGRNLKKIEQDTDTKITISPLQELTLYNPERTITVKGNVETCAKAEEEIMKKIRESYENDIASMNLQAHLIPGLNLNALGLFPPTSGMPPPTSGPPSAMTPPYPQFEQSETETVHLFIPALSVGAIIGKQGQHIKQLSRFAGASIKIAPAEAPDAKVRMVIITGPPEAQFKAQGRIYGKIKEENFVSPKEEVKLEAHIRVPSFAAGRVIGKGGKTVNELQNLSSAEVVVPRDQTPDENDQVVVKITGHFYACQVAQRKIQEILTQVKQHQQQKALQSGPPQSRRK
Protocol: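 SELEX-seq with GST-tagged full-length IMP3 and an N40 RNA pool, round 4. Each 6-mer is scored as an enrichment z-score of sequence tags containing it, normalised to the matching GST SELEX round. RNA written as DNA (T = U).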

[4] = tested on: IMP3 KH1-2; details: construct: KH1-2 (164-376); SELEX round: R4
Sequence of IMP3 KH1-2 (chain, as listed by the source): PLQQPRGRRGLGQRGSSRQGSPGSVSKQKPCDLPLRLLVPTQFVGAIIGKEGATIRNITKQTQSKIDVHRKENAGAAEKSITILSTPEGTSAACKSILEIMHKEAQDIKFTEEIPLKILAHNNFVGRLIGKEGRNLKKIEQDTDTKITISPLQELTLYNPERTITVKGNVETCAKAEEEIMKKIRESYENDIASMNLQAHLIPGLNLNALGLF
Protocol: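 SELEX-seq with GST-tagged IMP3 KH1-2 (Pro164-Phe376) and an N40 RNA pool, round 4 (stringent 300/600 mM KCl washes). 6-mer z-score of sequence-tag enrichment normalised to the corresponding GST SELEX round; RNA k-mers written as DNA (T for U).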

[5] = tested on: IMP3 KH3-4; details: construct: KH3-4 (377-579); SELEX round: R4
Sequence of IMP3 KH3-4 (chain, as listed by the source): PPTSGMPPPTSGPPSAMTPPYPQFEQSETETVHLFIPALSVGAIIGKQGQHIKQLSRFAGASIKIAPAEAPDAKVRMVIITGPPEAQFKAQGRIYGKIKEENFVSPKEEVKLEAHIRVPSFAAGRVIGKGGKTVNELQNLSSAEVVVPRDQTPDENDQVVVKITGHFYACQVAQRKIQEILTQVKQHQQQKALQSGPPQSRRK
Protocol: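 SELEX-seq with GST-tagged IMP3 KH3-4 (Pro377-Lys579) and an N40 RNA pool, round 4. 6-mer z-score of sequence-tag enrichment normalised to the corresponding GST SELEX round; RNA k-mers written as DNA (T for U).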

Sequence of IMP3 KH1-4 (chain, as listed by the source): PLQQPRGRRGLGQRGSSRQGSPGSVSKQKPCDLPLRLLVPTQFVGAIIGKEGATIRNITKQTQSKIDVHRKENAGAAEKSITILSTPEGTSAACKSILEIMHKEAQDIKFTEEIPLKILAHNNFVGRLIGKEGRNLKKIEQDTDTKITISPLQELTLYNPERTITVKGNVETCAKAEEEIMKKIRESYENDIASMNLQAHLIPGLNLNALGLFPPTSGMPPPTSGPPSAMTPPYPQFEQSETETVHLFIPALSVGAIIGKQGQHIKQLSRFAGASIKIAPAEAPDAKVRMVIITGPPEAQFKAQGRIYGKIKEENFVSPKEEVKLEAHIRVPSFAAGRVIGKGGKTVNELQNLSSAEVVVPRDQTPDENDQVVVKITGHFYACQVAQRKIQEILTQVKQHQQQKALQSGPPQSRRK

Sequence	6-mer SELEX enrichment z-score [1]	6-mer SELEX enrichment z-score [2]	6-mer SELEX enrichment z-score [3]	6-mer SELEX enrichment z-score [4]	6-mer SELEX enrichment z-score [5]
AGTTTC	-0.346	0.388	0.004	-0.284	-0.18
GTGATC	-0.02	0.082	0.028	-0.197	-0.167
TACGGG	0.073	-0.165	0.169	0.113	0.174
CATAGA	0.797	0.552	0.857	0.744	0.982
CTACAG	-0.014	0.526	0.178	0.12	-0.123
GTATCC	-1.12	-0.08	-0.731	-0.975	-1.12
TATAAT	1.66	0.028	0.301	1.47	2.53
TGGGTG	0.058	0.348	0.055	0.143	0.225
GATGGG	0.868	-0.019	0.29	0.896	1
GGGGAT	0.825	0.014	0.417	0.992	0.977
CTGAGT	-0.49	-0.202	-0.31	-0.401	-0.345
TGAAGA	0.676	-1.12	-0.713	0.341	0.957
TGGATA	0.441	-0.116	-0.092	0.265	0.627
GGTAAT	0.197	0.096	0.042	0.134	0.488
AGGTCT	0.072	0.357	0.312	0.135	0.261
GGAGCT	-0.324	-0.048	-0.017	-0.203	-0.086
ATTACT	1.02	0.281	0.125	1.04	1.2
CACAGA	0.819	1.69	1.93	1.09	0.498
ACGCCG	-0.228	-0.484	0.162	-0.044	-0.631
AAAATT	0.543	-1.31	-0.962	0.75	1.78

Sequence	6-mer SELEX enrichment z-score [1]	6-mer SELEX enrichment z-score [2]	6-mer SELEX enrichment z-score [3]	6-mer SELEX enrichment z-score [4]	6-mer SELEX enrichment z-score [5]
GAACTC	-1.04	-0.544	-0.767	-0.902	-1.09
TATGCC	-0.077	-0.29	-0.473	-0.138	-0.251
CGCGAC	-0.759	-0.413	-0.048	-0.637	-0.989
CTTACG	-0.088	-0.093	-0.314	-0.163	-0.173
GCGCTG	-0.417	0.064	0.006	-0.236	-0.266
TCCGTC	0.159	0.285	0.508	0.207	-0.173
TAATTG	0.602	-0.114	-0.158	0.412	1.09
ATTTGC	0.675	0.12	0.038	0.502	0.639
CGTACG	-1.48	-0.297	-0.723	-1.41	-1.44
AAACAA	0.004	-0.076	-0.599	0.601	1.15
AGCCTC	-0.893	-0.183	-0.227	-0.814	-1.01
AGTGGA	0.21	-0.321	-0.04	0.033	0.242
TGGTGT	-0.089	0.496	-0.01	-0.009	0.11
GTAACA	0.078	0.092	0.248	-0.026	0.17
ACGTAA	-0.839	-0.904	-1.04	-0.963	-0.568
TTTTTG	0.345	0.32	0.017	0.307	0.683
AGTCTG	-0.056	0.2	0.101	-0.07	-0.103
GAAGAA	0.802	-1.76	-0.963	0.454	1.35
ATGACC	-0.101	-1.1	-1.03	-0.285	-0.606
AGCATG	0.007	0.492	0.588	-0.099	-0.073

Sequence	6-mer SELEX enrichment z-score [1]	6-mer SELEX enrichment z-score [2]	6-mer SELEX enrichment z-score [3]	6-mer SELEX enrichment z-score [4]	6-mer SELEX enrichment z-score [5]
TGCGGA	-0.237	-0.159	-0.134	-0.232	-0.147
GGATCG	-0.027	-0.096	0.151	-0.12	0.009
CAGAGT	-0.49	0.31	0.141	-0.476	-0.463
CCTGTC	-0.257	0.04	-0.217	-0.241	-0.637
GTCAGC	0.195	0.39	0.587	0.007	-0.136
TATCTG	0.183	0.183	-0.016	0.161	0.147
CCTGTT	0.004	-0.041	-0.276	-0.043	-0.153
GCCAAG	-0.772	-0.526	-0.348	-0.715	-0.762
ACACTA	1.88	1.86	0.909	2.15	1.64
ACCTAT	-0.435	-0.357	-0.76	-0.439	-0.55
GACTGA	-0.396	-1.18	-1.05	-0.39	-0.363
AGAACA	1.34	0.333	0.906	1.34	1.7
CCCACT	-0.817	-0.189	-0.775	-0.59	-1.38
GCGTGC	-0.725	0.24	0.124	-0.615	-0.564
GATGGC	0.829	-0.1	0.513	0.703	0.99
TTACCT	-0.727	-0.142	-0.736	-0.618	-0.708
GCAAGT	0.166	0.124	0.287	-0.018	0.144
ATTCAA	0.829	1.48	1.19	0.955	0.889
TTCCGC	0.685	0.092	0.305	0.942	0.079
GTGTGA	0.517	-0.238	-0.208	0.18	0.381
